According to PubChem BioAssay AID485297 (National Center for Advancing Translational Sciences (NCATS), 2010):
Out of some 320,000 compounds screened, about 9,100 (2.8%) were called active. Inconclusive results, whose numbers are uncertain, are shown with a selection of clear calls. The call rests on the fitted dose curve; in most records, active means well fitted activation curve with a large enough effect; inconclusive means small, poorly fitted or top-dose-only effect; inactive means no such curve, though single readings can be large or run the other way. Potencies of inconclusive entries are left out as doubtful fits.
Potency means the concentration at half of the fitted maximal effect; tags describe the fitted curve by direction and shape.

Experiment: qHTS Assay for Rab9 Promoter Activators; further: nearly all actives have a fitted effect of over 60% in size; on activation, negative = inhibition: % of control where 0% means no effect
Conditions: Huh7 Rab9 promoter-luciferase reporter, luminescence, 24 h; series mostly up to 9.22 µM; activation, negative = inhibition: at the top concentration
How it was run: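 Cell-based reporter: Huh7 stable for Rab9 promoter-driven luciferase, plated in reduced-serum medium with 10% FBS at 1500 cells/well, compound-treated 24 h at 37 °C, luminescence read after 10 min reagent.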
In the case of `CC(=O)c1ccc(NC(=O)C2(c3ccccc3)CCOCC2)cc1`, the Potency is reported as inconclusive [activator, partial curve].
For `Cc1cccc(C(=O)OCC(=O)N2CCCCCC2)c1`, the Potency was inconclusive [activator, partial curve].
With `c1ccc(SCc2nc3ccccc3[nH]2)nc1` the Potency was inconclusive [activator, single point].
For `Cc1ccc(NC2=C/C(=N\S(=O)(=O)c3cccs3)c3ccccc3C2=O)c(C)c1`, the Potency was inconclusive [activator, partial curve].
With `O=C(/C=C/c1cccc(Cl)c1)Nc1ncccn1` the Potency was inconclusive [activator, partial curve].
With `CC(=O)c1ccc(NC(=O)Cc2ccsc2)cc1` the Potency was inconclusive [activator, partial curve].
For `CC(=O)NCCN=C(C)c1sc2ccccc2c1O`, the Potency was inconclusive [activator, single point].
For `COc1cccc(NC(=S)N/N=C2\CC3CCC2(C)C3(C)C)c1` (stereo not drawn), the Potency was inconclusive [activator, single point].
With `CC(=O)c1cccc(Nc2nc(-c3cccnc3)cs2)c1` the Potency was inconclusive [activator, partial curve].
With `Cc1cc(Nc2ccc(Cl)cc2)nc(N)n1` the Potency was inconclusive [activator, partial curve].
With `Nc1c(-c2cccs2)cnn1-c1nc(-c2ccc(F)cc2)cs1` the Potency was inconclusive [activator, single point].
With `COc1ccc(Cn2c(-c3ccco3)nc3oc4ccccc4c(=O)c3c2=O)cc1` the Potency was inconclusive [activator, partial curve].
With `COC(=O)c1cc2c(s1)-c1ccccc1CC2` the “activation, negative = inhibition” value was inactive: 2.14%.
For `CC(C)(C)Cc1nnc(NC(=O)CSc2ccccc2)s1`, the Potency was inconclusive [activator, partial curve].
For `Clc1ccc(C2=NN(c3ccccc3)C(c3ccco3)C2)cc1` (stereo not drawn), the “activation, negative = inhibition” value was inactive: -4.61%.
With `Cc1ccc2nc(/C(C#N)=C\c3ccc(OC(=O)c4cccs4)cc3)[nH]c2c1` the Potency was inconclusive [activator, single point].
In the case of `Cc1c(C(=O)N2CCOCC2)oc2ccc(S(=O)(=O)N3CCCC3)cc12`, the Potency is reported as active: 0.0158 µM.
For `c1ccc(-c2noc(-c3ccc4c(c3)OCO4)n2)cc1`, the Potency was active: 0.282 µM.
For `CCOc1ccccc1NC(=O)Nc1ccc2c(c1)OCO2`, the Potency was inconclusive [activator, single point].
For `CC(=O)c1cccc(NC(=O)c2cccc(N3C(=O)c4ccccc4C3=O)c2)c1`, the “activation, negative = inhibition” value was inactive: 1.61%.
In the case of `O=C(Nc1nnc(SCc2ccccc2)s1)c1cccs1`, the “activation, negative = inhibition” value is reported as inactive: 21%.
With `COc1ccc(C(=O)CSc2ccccc2C(=O)O)cc1` the Potency was inconclusive [activator, full curve].
In the case of `Cc1nn(C)cc1/C=C/C(=O)c1cccs1`, the Potency is reported as inconclusive [activator, single point].
For `O=C(NCCc1ccc(Cl)cc1)c1ccc(Br)s1`, the Potency was active: 4.47 µM.
For `Cc1cccc(NC(=O)Nc2ccc(Cl)c(Cl)c2)n1`, the Potency was inconclusive [activator, single point].
For `CC(C)n1cnc2cc(NC(=O)c3ccco3)ccc21`, the Potency was active: 1.78 µM.
For `CC(C)/C=C1\CCc2c([nH]c3ccccc23)C1=O`, the Potency was inconclusive [activator, partial curve, poor fit].
In the case of `CSc1ccccc1OCc1cc(C(=O)NC(C)Cc2cccc(C)n2)no1` (stereo not drawn), the Potency is reported as inconclusive [activator, partial curve].
In the case of `Cc1ccc(Cc2nc(-c3cccc(C)c3)no2)cc1`, the Potency is reported as inconclusive [activator, partial curve].
In the case of `O=C(c1ccccc1)c1ccc(N2CCCC2)cc1`, the Potency is reported as active: 2.51 µM.
For `N=C1C(c2nc3ccccc3s2)=C(O)CN1C1CCCCC1`, the Potency was inconclusive [activator, single point].
For `Cc1ccc(N=Cc2c(C)[nH]n(-c3nc4ccccc4[nH]3)c2=O)cc1`, the Potency was inconclusive [activator, single point].
With `COc1ccc2oc(C(=O)NCCC(C)C)c(C)c2c1` the Potency was inconclusive [activator, partial curve, poor fit].
In the case of `CCOc1ccc(N2C(=O)S/C(=C\c3cc(OC)c(OC)c(OC)c3)C2=O)cc1`, the “activation, negative = inhibition” value is reported as inactive: -5.26%.
For `CCOC(=O)Cn1nc(C)c(-c2ccccc2)c1N`, the “activation, negative = inhibition” value was inactive: 5.1%.
For `COC(=O)c1ccc(-c2noc(CN3C[C@H]4CC[C@H]3C4)n2)cc1`, the Potency was inconclusive [activator, single point].
For `CCOc1ccc(-c2c(C(=O)N/N=C/c3ccsc3)nnn2-c2nonc2N)cc1`, the “activation, negative = inhibition” value was inactive: -0.118%.
For `Cn1c2ccccc2c(=O)c2ccc(-c3ccc4c(c3)OCO4)cc21`, the Potency was active: 1.12 µM.
For `CC(=O)N1C(C)(C)CC(=NOC(=O)c2ccc(C)cc2)CC1(C)C`, the Potency was inconclusive [activator, single point].
In the case of `O=C(NC(=S)Nc1ccc2nc[nH]c2c1)c1ccccc1`, the Potency is reported as active: 3.98 µM.
With `O=C(CSc1nnc(-c2ccc(O)cc2)o1)N1CCOCC1` the Potency was inconclusive [activator, partial curve].
In the case of `O=C1OC2(CCCCC2)CC2=C1C1O[C@](CCCCN3C(=O)c4ccccc4C3=O)(Cc3ccccc31)O2`, the activation, negative = inhibition is reported as inactive: -9.28% [at 1.84 µM].
With `CCOC(=O)c1sc(N)c(C(=O)Nc2ccccc2)c1C` the Potency was active: 2.82 µM.
With `COC(=O)c1ccc(NC(=O)c2cccc(OC)c2)cc1` the Potency was inconclusive [activator, partial curve].
In the case of `N#Cc1c(N2CCCC2)nsc1-c1ccccc1`, the Potency is reported as inconclusive [activator, partial curve].
For `Cc1ccc(/C(N)=N/OC(=O)c2ccc3c(c2)OCO3)cc1`, the Potency was active: 2.82 µM.
With `CCOC(=O)c1ccc(NC(=O)/C=C/c2cccs2)cc1` the Potency was inconclusive [activator, full curve].
For `NC[C@H]1O[C@@H](n2cnc3c(N)ncnc32)[C@H](O)[C@@H]1O`, the “activation, negative = inhibition” value was inactive: 0.537% [at 46.1 µM].
